# Assay results published in PubChem BioAssay AID504333 (National Center for Advancing Translational Sciences (NCATS), 2011).
# Values joined by “and” are separate entries in the source; they are usually repeats but may differ in a detail not shown here. Equal values may be shown once. Out of some 360,000 compounds screened, about 16,000 (4.4%) were called active. Inconclusive results, whose numbers are uncertain, are shown with a selection of clear calls. The call rests on the fitted dose curve; in most records, active means well fitted inhibition curve with a large enough effect; inconclusive means small, poorly fitted or top-dose-only effect; inactive means no such curve, though single readings can be large or run the other way. Where the call is inconclusive, the potency comes from a doubtful curve fit.
# Target: Bromodomain adjacent to zinc finger domain protein 2B (Homo sapiens) (UniProt Q9UIF8)
# UniProt Q9UIF8, sequence (Q9UIF8 whole entry, looked up, the tested form may be a part): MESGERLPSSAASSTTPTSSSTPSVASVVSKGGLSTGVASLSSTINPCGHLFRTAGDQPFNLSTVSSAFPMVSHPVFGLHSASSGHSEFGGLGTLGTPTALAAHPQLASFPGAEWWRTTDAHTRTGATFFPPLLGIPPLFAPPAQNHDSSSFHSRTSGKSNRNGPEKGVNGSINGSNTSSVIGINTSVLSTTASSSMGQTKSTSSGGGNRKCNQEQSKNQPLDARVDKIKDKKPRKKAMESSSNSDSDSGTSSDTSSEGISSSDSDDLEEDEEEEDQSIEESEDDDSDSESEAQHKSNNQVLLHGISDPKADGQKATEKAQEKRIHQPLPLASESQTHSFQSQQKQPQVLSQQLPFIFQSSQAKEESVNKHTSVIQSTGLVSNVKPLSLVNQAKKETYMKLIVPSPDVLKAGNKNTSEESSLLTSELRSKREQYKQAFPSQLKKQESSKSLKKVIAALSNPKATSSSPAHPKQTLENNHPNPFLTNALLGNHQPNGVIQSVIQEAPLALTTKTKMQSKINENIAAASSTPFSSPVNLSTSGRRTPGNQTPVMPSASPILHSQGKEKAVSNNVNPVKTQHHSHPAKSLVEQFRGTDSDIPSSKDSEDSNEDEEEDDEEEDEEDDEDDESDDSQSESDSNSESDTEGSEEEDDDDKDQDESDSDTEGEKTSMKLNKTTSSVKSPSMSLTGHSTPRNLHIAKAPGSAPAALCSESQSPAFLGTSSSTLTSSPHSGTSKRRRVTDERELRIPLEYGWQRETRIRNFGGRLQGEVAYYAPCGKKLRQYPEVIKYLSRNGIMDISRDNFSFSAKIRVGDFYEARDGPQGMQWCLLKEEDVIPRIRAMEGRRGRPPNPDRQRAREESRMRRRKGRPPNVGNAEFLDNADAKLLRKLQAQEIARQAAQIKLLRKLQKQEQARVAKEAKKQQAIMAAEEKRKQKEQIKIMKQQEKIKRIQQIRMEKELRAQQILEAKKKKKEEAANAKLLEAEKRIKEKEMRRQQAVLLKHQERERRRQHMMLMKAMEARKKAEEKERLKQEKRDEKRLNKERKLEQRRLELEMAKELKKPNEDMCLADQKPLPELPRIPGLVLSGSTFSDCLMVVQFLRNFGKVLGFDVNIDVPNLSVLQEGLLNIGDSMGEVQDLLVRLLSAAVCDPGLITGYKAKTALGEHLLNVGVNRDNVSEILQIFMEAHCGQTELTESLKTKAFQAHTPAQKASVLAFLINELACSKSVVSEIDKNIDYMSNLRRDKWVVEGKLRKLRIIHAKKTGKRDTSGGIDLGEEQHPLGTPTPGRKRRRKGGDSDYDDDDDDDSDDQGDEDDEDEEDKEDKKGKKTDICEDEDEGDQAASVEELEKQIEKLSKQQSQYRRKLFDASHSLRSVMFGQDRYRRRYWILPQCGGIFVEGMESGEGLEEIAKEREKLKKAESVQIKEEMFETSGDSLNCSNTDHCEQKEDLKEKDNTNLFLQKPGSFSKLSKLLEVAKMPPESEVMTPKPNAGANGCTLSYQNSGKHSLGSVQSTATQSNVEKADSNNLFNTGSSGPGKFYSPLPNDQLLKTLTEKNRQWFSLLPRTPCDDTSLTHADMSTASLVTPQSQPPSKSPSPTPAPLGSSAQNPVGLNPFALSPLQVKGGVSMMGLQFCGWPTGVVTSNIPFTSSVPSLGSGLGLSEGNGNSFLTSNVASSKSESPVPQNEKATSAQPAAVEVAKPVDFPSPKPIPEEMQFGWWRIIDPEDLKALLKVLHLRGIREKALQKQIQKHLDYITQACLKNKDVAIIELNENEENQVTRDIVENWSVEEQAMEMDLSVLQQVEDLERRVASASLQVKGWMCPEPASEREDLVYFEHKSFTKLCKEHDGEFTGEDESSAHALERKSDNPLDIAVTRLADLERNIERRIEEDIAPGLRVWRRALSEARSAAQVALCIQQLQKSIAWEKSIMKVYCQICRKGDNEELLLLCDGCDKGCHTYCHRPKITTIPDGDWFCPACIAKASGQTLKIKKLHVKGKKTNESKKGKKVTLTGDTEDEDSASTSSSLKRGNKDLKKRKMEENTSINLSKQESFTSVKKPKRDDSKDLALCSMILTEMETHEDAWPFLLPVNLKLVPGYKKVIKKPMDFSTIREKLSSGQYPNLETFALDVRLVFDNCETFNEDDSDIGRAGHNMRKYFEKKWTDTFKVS
# Experiment: qHTS Assay for Inhibitors of BAZ2B; further: nearly all actives have a fitted effect of over 60% in size
# Settings: AlphaScreen BAZ2B-H3K14Ac peptide displacement; activity change, negative = inhibition: at 114 µM (top of the series) unless noted
# In short: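 Inhibition is scored as reduced AlphaScreen emission. The BAZ2B/b-H3(5-23)K14Ac complex (50 nM each) in PBS pH 7.4, 0.01% Tween-20 meets compound (up to 110 uM) for 30 min at RT before bead addition.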
# On the % scale 0 is the no-effect control and ±100 the full control effect; potency means the concentration at half of the fitted maximal effect; tags describe the fitted curve by direction and shape.
Structure (SMILES),Potency,"activity change, negative = inhibition"
CC1(OC(=O)C2CCCC2)C(=O)C=C2C=C(c3ccsc3)N(C3CCCCC3)C=C2C1=O (configuration not stated),"inconclusive: 50.1 µM [inhibitor, partial curve]",–
COc1ccc(-c2c(C#Cc3ccsc3)c3ccccc3n2C)cc1,"inconclusive: 79.4 µM [inhibitor, single point]",–
CCc1cccc(NC(=O)CCSCCC(=O)Nc2cccc(CC)c2)c1,–,inactive: -21.7%
O=C(Nc1cc(Sc2nc3ccccc3s2)cc([N+](=O)[O-])c1)c1ccccc1,"inconclusive: 35.5 µM [inhibitor, full curve, poor fit]",–
CCc1ccc(-n2c(CCC(=O)O)ccc2-c2ccc(F)cc2)cc1,"inconclusive: 50.1 µM [inhibitor, partial curve]",–
COc1cc2c(=O)n(CCC(=O)NCC3CCCO3)c(=O)n(CC(=O)Nc3ccc(F)cc3)c2cc1OC (configuration not stated),inactive,–
CCOC(=O)C1CCCN(Cc2ccccc2C)C1 (configuration not stated),active: 70.8 µM,–
COc1ccc(-c2cc(-c3ccc(OC)cc3)[nH]n2)cc1,–,inactive: -8.16%
O=C(O)c1ccccc1-c1ccccc1C(=O)Nc1nccs1,"inconclusive: 89.1 µM [inhibitor, single point]",–
COc1cc(C2c3c(-c4cc(C)cc(C)c4O)n[nH]c3C(=O)N2CCCO)cc(OC)c1OC (configuration not stated),–,inactive: -3.19%
COCCCN(C(=O)c1cc2c(s1)CCC2)c1c(N)n(Cc2ccccc2)c(=O)[nH]c1=O,"inconclusive: 56.2 µM [inhibitor, partial curve]",–
COc1cccc(NC(=O)c2c(C(=O)Nc3ccccc3)sc3nc(C)cc(=O)n23)c1,–,inactive: -0.728%
O=C(NC(=S)N1CCCc2ccccc21)c1ccco1,"inconclusive: 44.7 µM [inhibitor, partial curve]",–
COc1ccc(N2CCN(C(=O)CCCSc3nc4ccccc4[nH]3)CC2)cc1,–,inactive: -26.1%
CCOc1ccc2c(c1)C(C)=CC(C)(C)N2S(=O)(=O)c1ccc(NC(C)=O)cc1,"inconclusive: 89.1 µM [inhibitor, single point]",–
CCc1ccccc1N1CSC2=C(C#N)C(c3ccccc3F)CC(=O)N2C1 (configuration not stated),active: 56.2 µM,–
CC(C)NC(=O)c1ccccc1NC(=O)C1COc2ccccc2O1 (configuration not stated),–,inactive: -0.728%
S=C(NCc1ccco1)N1CCN(c2nc(-c3ccc(Cl)cc3)cs2)CC1,"inconclusive: 56.2 µM [inhibitor, partial curve]",–
COc1ccc(CNC(=O)[C@H](Cc2c[nH]c3ccccc23)NC(=O)[C@@H]2Cc3ccccc3CN2)cc1,"inconclusive: 89.1 µM [inhibitor, single point]",–
O=S(=O)(c1ccccc1)c1nc(-c2ccc(F)cc2)oc1N1CCCCCC1,"inconclusive: 10 µM [inhibitor, full curve, poor fit]",–
CC1CCc2c(C(=O)Nc3nccs3)csc2C1 (configuration not stated),"inconclusive: 31.6 µM [inhibitor, single point]",–
O=C(Nc1cccs1)Nc1c(F)c(F)c(F)c(F)c1F,"inconclusive: 39.8 µM [inhibitor, single point]",–
COc1ccc(-c2nc(CS(=O)CC(=O)NCCc3ccc(OC)c(OC)c3)c(C)o2)cc1 (configuration not stated),–,inactive: -9.9%
CCCc1cc(-c2[nH]ncc2-c2ccc3c(c2)OCCCO3)c(O)cc1OC,"inconclusive: 39.8 µM [inhibitor, full curve]",–

Structure (SMILES),Potency,"activity change, negative = inhibition"
COc1cccc(N2CC(C(=O)Oc3ccc4ccccc4c3)CC2=O)c1 (configuration not stated),"inconclusive: 89.1 µM [inhibitor, single point]",–
O=C1N=C(N2C=CC(=C3C=CNC=C3)C=C2)/C(=C/N=NC(=O)c2ccccc2O)S1,active: 50.1 µM,–
Cc1csc(Nc2ccccc2C(F)(F)F)n1,"inconclusive: 100 µM [inhibitor, single point]",–
CC(C(=O)NC1C(=O)N2C(C(=O)O)=C(CSc3nnnn3C)CSC12)n1cc(Br)cn1 (configuration not stated),active: 50.1 µM,–
COCCNC(=O)Cn1ncc2c(C)n(Cc3ccc(C)cc3)c(C)c2c1=O,–,inactive: -9.83%
CCOC(=O)c1ccc(-c2ccc(/C=C(\C#N)C(=O)Nc3ccc(C)cc3OC)o2)cc1,–,inactive: -2.48%
O=[N+]([O-])c1ccc(CN2CCSCC2)cc1,active: 70.8 µM,–
O=C(CC1CS(=O)(=O)CC1CC(=O)Nc1ccc2c(c1)OCCO2)Nc1ccc2c(c1)OCCO2 (configuration not stated),"inconclusive: 56.2 µM [inhibitor, partial curve]",–
COc1ccc(CNC(=S)Nc2ccc3nc(N4CCOCC4)cc(C)c3c2)cc1,–,inactive: -36%
CCN(CC)c1ccc2nc3ccc(N)cc3[n+](-c3ccccc3)c2c1,active: 12.6 µM,–
FC(F)(F)c1cccc(N2CCN(C(=S)NC3CCCC3)CC2)c1,–,inactive: 6.38%
[O-]/C(=C(\C(=S)Nc1ccc(SC(F)F)cc1)[n+]1ccccc1)c1ccc(Cl)cc1Cl,"inconclusive: 25.1 µM [inhibitor, full curve]",–
CCN1/C(=C/c2cc[n+](CCCS(=O)(=O)[O-])c3ccccc23)Sc2ccccc21,"inconclusive: 70.8 µM [inhibitor, partial curve]",–
COc1ccc(C2C(C(C)=O)=C(O)C(=O)N2c2cccnc2)cc1OC (configuration not stated),"inconclusive: 100 µM [inhibitor, single point]",–
Cc1ccc(-n2ncc3c(NCCc4ccccc4)ncnc32)cc1,–,inactive: 13.4%
CN1CCN(c2ncc3c(n2)CCN(Cc2ccccc2Cl)C3)CC1,"inconclusive: 79.4 µM [inhibitor, single point]",–
CCOc1ccc(NC(=O)CC2C(=O)N(c3ccc(OC)c(Cl)c3)C(=S)N2C2CC2)cc1 (configuration not stated),"inconclusive: 89.1 µM [inhibitor, single point]",–
COc1ccccc1NC(=O)C1=C(C)Nc2ncnn2C1c1ccc[nH]1 (configuration not stated),"inconclusive: 89.1 µM [inhibitor, single point]",–
O=C(c1cc2c(s1)CCC2)N1CCN(c2ccccc2)CC1,active: 56.2 µM,–
CCOC(=O)c1c(Nc2ccccc2)nnc(-c2ccccc2)c1-c1ccccc1,–,inactive: -30.4%
O=[N+]([O-])c1cc(/C=N/n2c(-c3ccncc3)n[nH]c2=S)ccc1Cl,"inconclusive: 35.5 µM [inhibitor, partial curve]",–
CCOC(=O)c1c(C)[nH]c(C(=O)N2CCCC(C(=O)c3cccc(OC)c3)C2)c1C (configuration not stated),"inconclusive: 79.4 µM [inhibitor, single point]",–
CCOc1ccc(CN2CCN(CC3=Cc4cccc(OC)c4OC3)CC2CCO)cc1 (configuration not stated),–,inactive: -14.1%
CCCc1cc(=O)[nH]c(SCC(=O)NC)n1,–,inactive: -4.49% [at 57.1 µM]

Structure (SMILES),Potency,"activity change, negative = inhibition"
COc1cccc(Cn2c(SCc3ccc(C(=O)N4CCC(C)CC4)cc3)nc3ccncc32)c1,active: 22.4 µM,–
Cc1ccc(C23CC4CC(CC(C(N)=O)(C4)C2)C3)cc1,"inconclusive: 89.1 µM [inhibitor, single point]",–
Cc1cccc(C)c1OCC(O)CN1CCN(c2ccccc2)CC1 (configuration not stated),"inconclusive: 79.4 µM [inhibitor, single point]",–
O=C(NNc1ccccc1[N+](=O)[O-])Nc1ccc(Cl)c(Cl)c1,"inconclusive: 89.1 µM [inhibitor, single point]",–
COc1ccc2[nH]cc(CCN3C(=O)CCC3=O)c2c1,"inconclusive: 7.94 µM [inhibitor, single point]",–
Cc1ccc(-n2c(SCc3nc(-c4ccccc4C)no3)nnc2-c2ccncc2)cc1C,–,inactive: -4.25%
Cc1cc(C)c2cc3c(N)c(C(=O)Nc4c(C)[nH]c(=O)[nH]c4=O)sc3nc2c1,active: 50.1 µM,–
COC(=O)[C@H](C)NC(=O)Nc1ccccc1C(F)(F)F,–,inactive: -1.67%
COC(=O)/C=C1\S/C(=N/N=C/c2ccco2)NC1=O,"inconclusive: 79.4 µM [inhibitor, single point]",–
COc1ccc(NC(=O)c2cccc(S(=O)(=O)N3CCc4ccccc43)c2)cn1,"inconclusive: 89.1 µM [inhibitor, single point]",–
S=c1[nH]nc(-c2ccccc2Cl)n1/N=C/C=C/c1ccco1,"inconclusive: 50.1 µM [inhibitor, partial curve]",–
Cc1ccc(C)n1-c1nccc(-c2cccs2)n1,"inconclusive: 89.1 µM [inhibitor, single point]",–
CC(=O)c1n[nH]nc1NC(=O)c1ccccc1,active: 50.1 µM,–
Cc1ccc(-c2csc(=Nc3ccccc3)n2CCCO)cc1,active: 44.7 µM,–
O=[N+]([O-])c1cccc(-c2nc(-c3cccs3)c(-c3cccs3)[nH]2)c1,"inconclusive: 50.1 µM [inhibitor, partial curve]",–
C=CCc1ccccc1OCC(O)CN1CCN(c2ccc(OC)cc2)CC1 (configuration not stated),active: 50.1 µM,–
CCC1CCCCN1C(=O)CSc1nnc2nc(C)cc(C)n12 (configuration not stated),–,inactive: -12.4%
COC(=O)CN1C(=S)N(Cc2ccccc2)C(=O)C1CC(=O)Nc1ccc(OC)cc1 (configuration not stated),"inconclusive: 89.1 µM [inhibitor, single point]",–
COc1cc2cc(CCCOC(=O)c3cccc(Br)c3)oc(=O)c2cc1OC,–,inactive: 13.4%
COc1cccc(NC(=O)CN(C)C(=O)c2ccc3c(c2)CC(c2ccccc2)OC3=O)c1 (configuration not stated),"inconclusive: 89.1 µM [inhibitor, single point]",–
CN(Cc1ccco1)c1ncnc2ccc(-c3ccc4c(ccn4C)c3)cc12,"inconclusive: 89.1 µM [inhibitor, single point] and inconclusive: 79.4 µM [inhibitor, single point]",–
COc1ccc2ccccc2c1/C=N/NC(=O)c1nnn(-c2nonc2N)c1CN(C)C,–,inactive: -3.31%
c1ccc(-c2ccccc2OCCOCCN2CCNCC2)cc1,active: 22.4 µM,–
c1ccc(CSc2ccc(-c3ccccn3)nn2)cc1,active: 6.31 µM,–
